The values below come from ChEMBL document CHEMBL4888484, “Replenishing the malaria drug discovery pipeline: Screening and hit evaluation of the MMV Hit Generation Library 1 (HGL1) against asexual blood stage Plasmodium falciparum ,using a nano luciferase reporter read-out” (2022).

Among all 150,000 compounds or so, about 540 (0.36%) showed an effect of 50% or more. The list shows a part of the results.

In the assay the test system is Plasmodium falciparum. Kind of assay: Primary screen in NF54 nanoGlo assay, in single point, at 2uM, 72h; a lower Z score goes with more inhibition. It counts as functional, Erythrocyte. As to conditions: timepoint 72 hour.
As to `Cc1cc(C)n2nc3c(c2n1)[C@@H](c1ccc(N(C)C)cc1)CC(=O)N3`, the “% Inhibition” value worked out at 4% and the Z score is -0.4.

Turning to `CCC(=O)NC1CCC(Nc2nc([C@@H](C)CC)nc3c2cnn3-c2ccccc2Cl)CC1` (some centres undefined), the “% Inhibition” value is -28% and the Z score worked out at 3.03.

For `O=C(Nc1nc2ccccc2s1)[C@H](Cc1ccccc1)NC(=O)N1CCOCC1`, the “% Inhibition” value is on record as -7% and the Z score came out at 0.91.

Take `O=C(NCc1nc2ncccn2n1)N[C@H]1CCCC12CCCCC2`: the “% Inhibition” value amounted to 16% and the Z score is recorded as -2.06.

In the case of `CCn1cc(S(=O)(=O)N[C@H]2CCCN(CCOC)C2)cn1`, the “% Inhibition” value is given as 6% and the Z score is reported as -0.74.

Regarding `Cc1n[nH]nc1C(=O)NCc1csc(N)n1`, the “% Inhibition” value was -9% and the Z score turned out to be 1.17.

Take `CCNc1nc(C)cc(Nc2ccc(NC(=O)c3cc(C)ccc3C)cc2)n1`: the “% Inhibition” value stood at 97% and the Z score is -9.09.

With `CCCc1nccn1CCO[C@@H]1CCCCO1`, the “% Inhibition” value is given as -13% and the Z score is given as 1.49.

Turning to `CN1CCCN(CC(=O)Nc2ccc([C@@H](O)c3cccs3)cc2)CC1`, the “% Inhibition” value is listed as 18% and the Z score is -2.45.

Take `O=C(Nc1cnns1)N1CCC(n2cn[nH]c2=O)CC1`: the “% Inhibition” value is given as 8% and the Z score is given as -0.9.

As to `C[C@@H](CN)Oc1cccc(CN(C)Cc2ccoc2)c1`, the “% Inhibition” value is -12% and the Z score was found to be 1.38.

In the case of `Cc1cc(C(=O)Nc2c(F)cccc2OCc2ccccc2)on1`, the “% Inhibition” value worked out at 32% and the Z score is on record as -3.44.

For the compound `CC#CCCN1CCN(S(C)(=O)=O)CC1`, the “% Inhibition” value is reported as 17% and the Z score is given as -1.9.

`O=C(Nc1cccc(Cl)c1)O[C@H]1CCCc2ccccc21`: the “% Inhibition” value is 8% and the Z score is on record as -0.92.

As for `Cc1cc(C(=O)N[C@H](c2noc(O)n2)C(C)(C)C)ncn1`, the “% Inhibition” value is on record as -15% and the Z score was found to be 1.38.

Take `COc1ccc(CC(=O)Nc2cnc(-n3ccnc3)nc2)cc1`: the “% Inhibition” value is on record as -4% and the Z score was found to be 0.6.

In the case of `CC(C)N1CCN(C(=O)[C@@H]2CCCCC(=O)N2Cc2ccccc2)CC1`, the “% Inhibition” value was -15% and the Z score is on record as 1.72.

For the compound `CCOc1ccccc1C(=O)NCc1ccc(-c2ccco2)nc1`, the “% Inhibition” value is listed as -9% and the Z score is 0.98.

Turning to `CN(Cc1cccc(F)c1)C(=O)c1nnc(-c2ccncc2)o1`, the “% Inhibition” value turned out to be 0% and the Z score is on record as -0.01.

Take `Cc1nc2nc(CN3CCC(c4cc[nH]n4)CC3)cc(O)n2n1`: the “% Inhibition” value is -4% and the Z score was 0.75.

As to `CN(Cc1cccc(C#N)c1)C(=O)C(=Cc1ccccc1)c1ccc(Cl)cc1`, the “% Inhibition” value is given as -4% and the Z score was 0.53.

With `O=S(=O)(N[C@H]1CCCc2ccccc21)c1cccc2c1N=S=N2`, the “% Inhibition” value is -10% and the Z score is recorded as 1.79.

On to `COc1ccc(C(=O)Nc2c(C#N)c(-c3ccc(Cl)cc3)nn2C(C)(C)C)cc1`, for which the “% Inhibition” value came out at 4% and the Z score was -0.58.

Take `CN1CCC[C@@H]1CCn1cnc(-c2ccccc2)c1-c1ccccc1C(=O)O`: the “% Inhibition” value was found to be 12% and the Z score was -2.19.

In the case of `C[C@H](Nc1ncc(C#N)cc1Cl)C1(S(C)(=O)=O)CC1`, the “% Inhibition” value is on record as -11% and the Z score is on record as 0.93.

For `O=C1NCCN1CC1CCN(C(=O)[C@H]2C[C@@H]2c2cccc(O)c2)CC1`, the “% Inhibition” value is reported as -5% and the Z score came to 0.66.

Turning to `CCCC1(CCC)NC(=O)N(CC(=O)c2ccc3c(c2)CCO3)C1=O`, the “% Inhibition” value is recorded as -30% and the Z score turned out to be 3.53.

As to `CN(CCN1CCCCC1=O)Cc1ccc(-c2ccco2)cc1`, the “% Inhibition” value is reported as -5% and the Z score worked out at 1.06.

With `CC[C@@H]1CN(Cc2cc3ccc(F)cc3[nH]c2=O)CC[C@]1(C)O`, the “% Inhibition” value was -4% and the Z score is 0.69.

Take `CN(CC(=O)N[C@H](c1ccccc1)C1CCCCC1)c1cnccn1`: the “% Inhibition” value is given as -11% and the Z score was found to be 1.09.

Take `Cn1cc(-c2noc(CNc3ncccn3)n2)cn1`: the “% Inhibition” value came out at 2% and the Z score is recorded as -0.21.

Consider `Cc1ccc([C@@H](NC(=O)Nc2nc(-c3ccccc3)cs2)C(Cl)(Cl)Cl)cc1F`, for which the “% Inhibition” value is on record as -3% and the Z score is listed as 0.49.

Consider `CC1OCCC1(C)NC(=O)Nc1ccc(C2CCC2)cn1` (centres undefined), for which the “% Inhibition” value was -6% and the Z score is 0.78.

Regarding `CCOc1c(Cl)cccc1CC(=O)N1CCCC[C@H]1c1ncon1`, the “% Inhibition” value is -6% and the Z score is recorded as 0.65.

For `Cc1noc(CCN2CC(O)=C(c3nc4ccccc4[nH]3)C2=N)n1`, the “% Inhibition” value was 18% and the Z score was -2.22.

Take `Cc1cc(=O)n(CC(=O)N2Cc3nnc(C)n3[C@@H](C)C2)c2ccccc12`: the “% Inhibition” value was -19% and the Z score stood at 2.21.

`O=C(NCc1ccc2c(c1)CCC2)NCC1CCC(O)C1` (centres undefined): the “% Inhibition” value came to 0% and the Z score was found to be 0.06.

In the case of `Cc1ccn2cc(CN3C(=O)CCNC3=O)nc2c1`, the “% Inhibition” value is reported as -14% and the Z score turned out to be 1.82.

Consider `Cc1cc(C(=O)NC[C@]2(OCCO)CCOC2)c(C)o1`, for which the “% Inhibition” value is reported as -9% and the Z score is 1.39.

Turning to `COc1ccnc(NCCn2cc(C)cn2)n1`, the “% Inhibition” value was -12% and the Z score turned out to be 2.34.

As to `Cc1cccnc1[C@H](C)n1cnc(-c2ccccc2)c1C`, the “% Inhibition” value is given as 3% and the Z score is recorded as -0.44.

Consider `Nc1nc2nc(C(F)(F)C(F)(F)C(F)(F)C(F)(F)F)cc(O)n2n1`, for which the “% Inhibition” value is given as -9% and the Z score stood at 1.19.

In general, % Inhibition refers to the relative decrease from the control value, in per cent.
